# According to the supplement of paper PMC12355420:
# Counter-ions that a name gives are not always drawn. Some of the results follow. Single values are uncertain, as repeats are few or missing.
# Tested on: HeLa VPS33A reporter cells
# Test: relative cell viability (CellMask signal) vs DMSO (fraction of DMSO); HeLa model of a glycosaminoglycan (GAG) storage disease; KI is knock-in and KO knock-out; SDC1 is syndecan 1; higher = less cytotoxic
# Details: 50 µM; 24 h
# 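Note: primary screen of an FDA-approved drug library in HeLa reporter cells in 96-well format, CellMask signal normalized to DMSO-treated wells set as 1, under 0.5 deemed highly cytotoxic.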
row,Compound,relative cell viability
1,C[N+]1(C)CCC(=C(c2ccccc2)c2ccccc2)CC1 [Diphemanil Methylsulfate],1.23
2,C#C[C@]1(O)CC[C@H]2[C@@H]3CCC4=Cc5oncc5C[C@]4(C)[C@H]3CC[C@@]21C [Danazol],1.12
3,CCc1ccc(CCOc2ccc(CC3SC(=O)NC3=O)cc2)nc1 (stereo unspecified) [Pioglitazone],0.927
4,CC(C)C[C@H](NC(=O)[C@@H](O)[C@H](N)Cc1ccccc1)C(=O)O [Bestatin],1.46
5,CN(CCOc1ccc(CC2SC(=O)NC2=O)cc1)c1ccccn1 (stereo unspecified) [Rosiglitazone HCl],1.16
6,CNC(=O)c1cc(Oc2ccc(NC(=O)Nc3ccc(Cl)c(C(F)(F)F)c3)c(F)c2)ccn1 [Regorafenib monohydrate],0.65
7,C[C@H](CCC(=O)NCC(=O)O)[C@H]1CC[C@H]2[C@@H]3[C@H](O)C[C@@H]4C[C@H](O)CC[C@]4(C)[C@H]3C[C@H](O)[C@]12C [Glycocholic Acid],1.04
8,COc1ccc2c(c1)c(CC(=O)O)c(C)n2C(=O)c1ccc(Cl)cc1 [Indomethacin],1.07
9,COc1ccc(-n2nc(C(N)=O)c3c2C(=O)N(c2ccc(N4CCCCC4=O)cc2)CC3)cc1 [Apixaban],1.32
10,COC(=O)N[C@H](C(=O)N[C@@H](Cc1ccccc1)[C@@H](O)CN(Cc1ccc(-c2ccccn2)cc1)NC(=O)[C@@H](NC(=O)OC)C(C)(C)C)C(C)(C)C,1.1
11,CC(=O)O[C@H]1C[C@@H]2CC[C@@H]3[C@H](CC[C@@]4(C)[C@H]3C[C@H]([N+]3(C)CCCCC3)[C@@H]4OC(C)=O)[C@@]2(C)C[C@@H]1N1CCCCC1 [Vecuronium Bromide],1.01
